Experimental data from the supplement of paper PMC3334620.
The full ranking holds about 33,000 sequences; the median of “E-score (-0.5 to 0.5)” is about -0.011, and the highest 2% start at about 0.28. Some of the results follow.

What follows are sequences tested against T1, Gcr1 (UniProt P07261) (assay: PBM E-score (8-mer binding enrichment) (E-score (-0.5 to 0.5)); higher = stronger / more preferred TF binding; most listed sequences are background and not binding sites). Conditions: protein concentration: 100 nM; construct: GST-full length.
T1 sequence: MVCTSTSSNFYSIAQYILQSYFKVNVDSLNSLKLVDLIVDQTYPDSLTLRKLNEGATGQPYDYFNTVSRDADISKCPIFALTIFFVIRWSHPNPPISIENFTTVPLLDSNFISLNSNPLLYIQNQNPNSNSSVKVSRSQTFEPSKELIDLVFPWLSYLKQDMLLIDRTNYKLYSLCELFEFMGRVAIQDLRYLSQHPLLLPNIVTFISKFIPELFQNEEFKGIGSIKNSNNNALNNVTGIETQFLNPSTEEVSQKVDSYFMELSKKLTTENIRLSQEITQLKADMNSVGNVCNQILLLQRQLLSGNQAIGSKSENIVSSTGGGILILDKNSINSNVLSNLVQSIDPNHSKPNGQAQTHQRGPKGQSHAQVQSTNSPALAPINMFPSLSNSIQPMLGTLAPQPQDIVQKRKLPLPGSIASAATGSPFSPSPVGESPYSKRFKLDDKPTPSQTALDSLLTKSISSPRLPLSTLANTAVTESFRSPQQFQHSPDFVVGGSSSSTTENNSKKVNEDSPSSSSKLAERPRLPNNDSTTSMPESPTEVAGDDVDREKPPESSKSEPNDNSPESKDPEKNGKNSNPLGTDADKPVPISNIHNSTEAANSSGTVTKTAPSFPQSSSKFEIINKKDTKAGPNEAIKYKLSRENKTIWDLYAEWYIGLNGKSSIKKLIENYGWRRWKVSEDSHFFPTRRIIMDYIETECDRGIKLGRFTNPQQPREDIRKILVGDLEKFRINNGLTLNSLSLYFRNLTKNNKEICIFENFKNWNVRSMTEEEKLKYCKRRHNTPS
Method in brief: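 For each ungapped eight-base word taken together with its reverse complement, the Universal PBM Analysis Suite assigned an E-score. Binding data came from GST-tagged yeast transcription factors, applied at about 100-200 nM, on universal all-10-mer Agilent arrays made double-stranded by primer extension. Fluorescent anti-GST marked bound protein, and scans were normalised with masliner.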

Row | Sequence | PBM E-score
1 | CGTACACG | 0.0896
2 | AGCACTCA | -0.0992
3 | GACATTTA | 0.0979
4 | CATCATCA | 0.0245
5 | CTATCGAA | 0.00373
6 | AACCACCG | 0.079
7 | ACGCGGAA | -0.219
8 | GTACTTCA | 0.0121
9 | ACCGTAGA | 0.0351
10 | CAGCTGCG | 0.061
11 | CATCTCAG | 0.0192
12 | CATGCAAA | -0.00491
13 | ACGACACC | -0.114
14 | CAAATGGC | 0.0778
15 | ACGATGAA | 0.0323
16 | ACCCGGTG | -0.00559
17 | AACGCAGG | -0.0203
18 | CCGGTATC | 0.288
19 | CGTTGGAC | -0.268
20 | ACGGTGGC | -0.114
21 | AAAGAAGA | 0.184
22 | GACTTGGA | -0.0352
23 | GATAACCC | -0.017
24 | ATTGTCCC | -0.147
25 | CGGTCTGC | -0.0359

Row | Sequence | PBM E-score
26 | AATTCCAT | 0.191
27 | CGACGAAA | 0.0264
28 | GGTACGGA | -0.178
29 | AGGGTAGA | -0.199
30 | ACTGCGAA | -0.221
31 | AGCTAGGC | -0.121
32 | ACGTCCCA | -0.153
33 | CATGTCGC | -0.00238
34 | GCGCAGCA | -0.0801
35 | GCTCCTAC | -0.171
36 | CCAGTAAG | 0.222
37 | ATGACTAC | -0.116
38 | CTAAGCGA | 0.0817
39 | GGTTGCCA | 0.377
40 | GCAGCGAC | 0.0079
41 | GGACGGAA | 0.0165
42 | ACAAGATA | 0.102
43 | CGCCAACG | -0.115
44 | AGCCCCCG | -0.0643
45 | ACTCTGAT | -0.0712
46 | CGCGGACG | -0.192
47 | GGCACAGA | -0.0983
48 | AGCCGCCT | 0.0597
49 | CCCTTCTA | -0.0975
50 | ACTGGCGC | 0.247

Row | Sequence | PBM E-score
51 | CTGGTAAA | 0.155
52 | ATCGTTGC | -0.118
53 | ATTGAACG | 0.00728
54 | AGCGTAAG | -0.209
55 | AAGCAAAT | -0.156
56 | AGGACCAG | -0.0937
57 | ATCACGAG | -0.0737
58 | CAGCCTAG | -0.0443
59 | ACGCTTTG | -0.113
60 | GCTATCCC | -0.262
61 | CTCGTATA | 0.145
62 | CCTGTTCG | 0.0636
63 | AACTTCAT | 0.0434
64 | GGGATTCA | 0.11
65 | TGTATGAA | 0.113
66 | ACATCCAG | 0.251
67 | AGGTGAAT | -0.0767
68 | CGATAGCC | -0.174
69 | CCGAAAGG | 0.00606
70 | CACGACGG | -0.156
71 | CCACCTCG | -0.214
72 | AAAAGTAA | 0.157
73 | ACTGCCTA | 0.0876
74 | AAGGCGCA | -0.00493
75 | AGAACCCC | 0.0794

Row | Sequence | PBM E-score
76 | TAACGTCA | -0.0544
77 | CTGGGGCA | 0.0556
78 | GTAAACGA | -0.0335
79 | GCGAGAAA | 0.0301
80 | AACCGGCC | -0.196
81 | GTGACTGA | 0.11
82 | CCAATGCA | -0.169
83 | AGAGAAAC | 0.181
84 | GGGGGGAA | -0.27
85 | GAAAGATC | -0.075
86 | CTGTATGC | -0.0214
87 | CAATAGGC | -0.0717
88 | CAATGAGG | -0.0488
89 | AGTGCTAT | -0.177
90 | GAGTAACC | 0.0288
91 | GGAAGGTA | 0.045
92 | GAGGGGCA | -0.105
93 | AGTGTGTG | -0.00969
94 | GAGGAACC | 0.318
95 | CATCAATC | 0.0763
96 | CCGCTTGC | -0.0401
97 | AACTGGAA | 0.342
98 | CGCCTTCA | -0.0419
99 | ACTTGGCC | -0.117
100 | GGTCTTAC | -0.147

Row | Sequence | PBM E-score
101 | CAGGTTCC | 0.226
102 | AGCTCAGA | 0.0831
103 | ATTGAGGC | 0.147
104 | CATGGTTC | 0.062
105 | CTTGTGAC | 0.0438
106 | CCATACCA | 0.0392
107 | ATGGACCG | -0.181
108 | ACGCACCT | 0.0718
109 | AATATGGA | 0.0708
110 | CACCCCGC | 0.201
111 | ATACAGCC | -0.267
112 | AACGTGTA | -0.0536
113 | AAAGACGG | 0.063
114 | TGAATGAA | 0.0885
115 | CGACTTTA | 0.00888
116 | ATATCAGC | 0.0477
117 | GGGCAATA | -0.283
118 | CTAGAAAG | -0.161
119 | AGATACCT | 0.26
120 | GCGGTGTA | 0.0242
121 | ATTACATA | 0.161
122 | AGATTACT | -0.0951
123 | CTAAACTC | 0.0932
124 | TCATTACA | 0.0645
125 | CTTTCTAC | 0.0892

Row | Sequence | PBM E-score
126 | CAGTGCGG | -0.103
127 | CGGGCAGA | -0.0209
128 | CACTCAAA | 0.0624
129 | GAACAACA | -0.164
130 | AGAAGACG | 0.277
131 | AATTAAAG | 0.112
132 | AGTCTATA | -0.0451
133 | CAGGGCTA | -0.0633
134 | AACACATG | -0.022
135 | CTCAGCAA | -0.05
136 | ATGATGAC | -0.162
137 | AATCAAAG | 0.0968
138 | ACCGTGGC | -0.183
139 | AAGCGAAA | 0.0656
140 | AACGAAGT | -0.0859
141 | ACATTCCG | -0.0668
142 | GACGGCGA | -0.0437
143 | CCTTCCTA | -0.019
144 | ACCATCTG | 0.0496
145 | CCAGGAAA | -0.111
146 | AGAACGCG | 0.0534
147 | CGCGCGAA | 0.0586
148 | CCCGAAGG | 0.0163
149 | CCGCCTTC | 0.0135
150 | GCGTTTAA | 0.0506

Row | Sequence | PBM E-score
151 | AAGTGCGA | -0.113
152 | TGCTAGCA | -0.243
153 | GCACACTA | 0.127
154 | CGCTTCTA | 0.259
155 | AGTTAAAG | -0.042
156 | CCACTGTC | 0.0267
157 | CTCACATC | -0.0648
158 | CCCAAAGG | -0.138
159 | AGATAAGC | 0.0314
160 | CGTAAGTA | 0.0448
161 | ATTTCGCA | 0.0698
162 | AAGGTCTG | -0.0336
163 | CCAATTCG | 0.0513
164 | AGTAAGCC | -0.118
165 | CCACTACA | 0.194
166 | CATTGCTA | -0.0517
167 | CCTCTTAA | -0.134
168 | ACAAGTAG | 0.185
169 | AACTCTAC | -0.0207
170 | AGGGAGAA | -0.113
171 | CAACCAAA | 0.313
172 | ACTCTATA | -0.0199
